# Test results as given in paper PMC6919601, “Identification of Plasmodium dipeptidyl aminopeptidase allosteric inhibitors by high throughput screening” (PLoS ONE, 2019).
# Screen size: about 110,000 compounds; about 230 (0.21%) showed an effect of 50% or more. This is one part of the list.
# Target: DPAP1 (Plasmodium falciparum, UniProt Q8IIJ9)
# Experiment: primary screen, percent inhibition; read by cleavage of a fluorogenic dipeptide substrate; higher = more effect of the substance
# Parameters: species or system P. falciparum D10 trophozoite lysates; single well
# 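Further: 30 min substrate incubation versus DMSO and 10 µM JCP410 controls.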
# Chain of DPAP1 (Q8IIJ9 whole entry, looked up): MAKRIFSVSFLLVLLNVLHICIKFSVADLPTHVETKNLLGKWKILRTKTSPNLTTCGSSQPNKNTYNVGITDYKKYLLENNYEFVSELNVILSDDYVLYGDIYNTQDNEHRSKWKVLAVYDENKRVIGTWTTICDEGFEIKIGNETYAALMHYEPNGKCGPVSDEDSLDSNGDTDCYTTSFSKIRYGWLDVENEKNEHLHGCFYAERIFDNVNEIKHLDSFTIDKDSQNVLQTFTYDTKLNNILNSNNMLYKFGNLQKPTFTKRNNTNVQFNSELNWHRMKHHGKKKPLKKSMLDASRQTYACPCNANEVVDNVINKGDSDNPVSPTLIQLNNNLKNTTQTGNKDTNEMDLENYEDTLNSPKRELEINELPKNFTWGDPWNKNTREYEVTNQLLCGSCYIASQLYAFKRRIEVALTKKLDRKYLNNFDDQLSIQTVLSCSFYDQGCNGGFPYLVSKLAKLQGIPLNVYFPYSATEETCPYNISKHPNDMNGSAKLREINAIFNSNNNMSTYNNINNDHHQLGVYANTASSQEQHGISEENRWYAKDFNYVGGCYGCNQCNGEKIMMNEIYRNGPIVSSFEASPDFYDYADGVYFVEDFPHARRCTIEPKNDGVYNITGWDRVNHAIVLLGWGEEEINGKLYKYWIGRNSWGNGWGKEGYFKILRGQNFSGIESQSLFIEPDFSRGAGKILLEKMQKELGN
row,SMILES,% Inhibition @ 10 uM [%]
1,O=C(/C=C/c1cccc(Cl)c1)OCCN1CCN(C2=NS(=O)(=O)c3ccccc32)CC1,-1.47
2,Cc1cc(C(=O)N2CCOCC2)c2c(C)nn(-c3ccccc3)c2n1,2.12
3,O=C(CSc1ccc(-c2cccs2)nn1)c1ccccc1,1.68
4,O=S(=O)(c1ccc(Br)c(S(=O)(=O)N2CCCCC2)c1)N1CCCCC1,-3.01
5,CC(Oc1ccccc1Cl)C(=O)NCc1ccccn1 (stereo not drawn),0.35
6,CCOc1ccccc1/C=c1\sc2nc(-c3ccccc3Br)nn2c1=O,-1.18
7,Cc1nonc1NC(=O)c1cc2ccccc2oc1=O,-1.47
8,O=C(Nc1cccnc1)c1ccc2c(c1)C(=O)N(c1ccccc1-c1ccccc1)C2=O,12.3
9,COc1ccc(CC(=O)Nc2cc(Cl)c(Cl)cc2Cl)cc1,-0.856
10,N#CC1=C(N)Oc2nc(-c3ccccc3)[nH]c2C1c1cccnc1 (stereo not drawn),3.45
11,COc1cccc(OCC(O)CN2CCN(c3ccccc3)CC2)c1 (stereo not drawn),-5.7
12,CC(C)CN1CC(=O)C(c2nc3ccccc3s2)=C1N,-4.82
13,Cc1ccc(/C=C2\Sc3ccccc3C2=O)s1,-5
14,O=C(C1CCCN(c2nnc(-n3cccc3)s2)C1)N1CCC2(CC1)OCCO2 (stereo not drawn),1.15
15,COc1ccc(-c2[nH]nc3nc(-c4ccccc4C)cc(C(=O)O)c23)cc1,-5.42
16,CCOC(=O)C1=C(c2ccccc2)NC(=O)NC1c1ccccc1OC (stereo not drawn),6.22
17,CN1CCN(CCOCCOc2c(Cl)cc(Cl)cc2Cl)CC1,-3.65
18,O=C1N=C(N2CCCCC2)S/C1=C/c1cccc2ccccc12,-0.597
19,CC(=O)Nc1ccc(S(=O)(=O)N2CCCc3ccccc32)cc1,-0.687
20,CCOc1ccc(C(=O)Nc2ccccc2)cc1,1.83
21,CCCCNS(=O)(=O)c1ccc(F)c(C(=O)O)c1F,-2.26
22,CCCC1CCC(C2=N/C(=C\c3cc(OC)c(OC)cc3OC)C(=O)O2)CC1 (stereo not drawn),-3.33
23,Cc1nc(O)nc(O)c1S(=O)(=O)NCc1nnc(O)c2ccccc12,-1.82
24,Cc1ccnc(NC(=O)CN2C(=O)CSc3ncccc32)c1,-0.637
25,CCc1c(C)sc(N)c1C(=O)NCc1cccnc1,2.08
26,Nc1cccc2ccc(S(=O)(=O)NCCO)cc12,-8.28

row,SMILES,% Inhibition @ 10 uM [%]
1,CNS(=O)(=O)c1cn(CC(=O)N2CCCCCC2)cc1S(=O)(=O)NC,-5.51
2,O=C1OC(c2ccc(Cl)cc2Cl)=N/C1=C\c1ccccc1F,0.434
3,COc1ccc(N2CCN(CC(O)COc3cccc(OC)c3)CC2)cc1 (stereo not drawn),-0.185
4,N#C/C(=C\c1c(Oc2ccc(Br)cc2)nc2ccccn2c1=O)C(=O)N1CCCCC1,7.65
5,CN(CC(=O)NCCc1ccc(Cl)cc1)S(=O)(=O)c1cc(Br)cnc1N,-1.72
6,CN(C(=O)COc1ccc(-c2nn(C)c(=O)c3ccccc23)cc1)C1CCCCC1,1.79
7,CCN1C(=O)C(=CNc2ccccc2Br)C(=O)N(CC)C1=O,-1.06
8,CCOC(=O)N1CCN(c2c(N3CCC(N4CCCCC4)CC3)c(=O)c2=O)CC1,-3.21
9,CCOC(=O)c1sc(-c2ccc(OC)cc2)cc1NC(C)=O,4.6
10,CCOC(=O)c1sc(NC(=O)c2ccc(Br)o2)c(C(=O)OCC)c1C,3.67
11,CCOC(=O)N1CCN(CC(O)COc2cc(C)ccc2C(C)C)CC1 (stereo not drawn),14.3
12,Cc1cccc(NC(=O)c2sc(Cl)nc2C)c1C,-0.884
13,COc1cc(-c2nnc3sc(Cc4ccc(Cl)cc4)nn23)cc(OC)c1OC,32.2
14,CN(C)c1ccc2c(c1)OC(N)=C(C#N)C2c1coc2ccccc2c1=O (stereo not drawn),-1.64
15,O=C(CCCc1nnc2n3nc(-c4ccccc4)nc3c3ccccc3n12)NCC1CCCO1 (stereo not drawn),2.04
16,COc1cc(/C=C2\C(=N)N3N=C(N4CCOCC4)SC3=NC2=O)ccc1OCc1ccccc1,-1.66
17,O=C(Nc1ccc(F)cc1F)C(c1ccccc1)c1ccccc1,0.467
18,Cc1ccc2c(CNCc3ccc4c(c3)OCO4)c(C(=O)O)n(Cc3ccc(F)cc3Cl)c2c1,9.8
19,COCCNC(=O)Cn1nc(C)n2c(cc3sccc32)c1=O,-1.58
20,COc1ccccc1C(=O)Nc1ccc(-c2cn3ccccc3n2)cc1,6.61
21,Cc1nn(Cc2cccc(C(=O)O)c2)c(C)c1Cl,-4.67
22,CCN1CCCC1CNC(=O)c1cc(C)nc2c1c(C)nn2-c1ccc(C)cc1 (stereo not drawn),-4.97
23,N#CC1=C(N)SC(N)=C(C#N)C1c1cccc([N+](=O)[O-])c1,26.3
24,CSc1nc2c(c(=O)n1C1CCCCC1)C1(CCCCC1)Cc1ccccc1-2,-1.69
25,COc1ccc(C(C)NC(=O)CSCc2cccc(Br)c2)cc1 (stereo not drawn),-3.52
26,CC(NC(=O)CN(C1CCCCC1)S(C)(=O)=O)c1ccccc1 (stereo not drawn),9.17

row,SMILES,% Inhibition @ 10 uM [%]
1,Cc1ccc2c(c1)-c1c(cnn1CC(=O)NC(C)c1ccccc1)CO2 (stereo not drawn),4.33
2,COc1cccc(/C=c2\sc3nnc(-c4ccccc4)n3c2=O)c1OC,-1.81
3,O=[N+]([O-])c1ccc2nc(/C=C(\O)c3ccc(Cl)cc3)c(/C=C(\O)c3ccc(Cl)cc3)nc2c1,0.774
4,CC1=Nc2ncnn2C(c2ccccc2C)/C1=C(/O)OCc1ccccc1 (stereo not drawn),-0.326
5,CCN(CC)CCNC(=O)CCNC(=O)c1cc(OC)c(OC)c(OC)c1,-0.519
6,COc1ccc(CCN2C(=O)CSC2c2ccc3cccc(O)c3n2)cc1OC (stereo not drawn),-3.95
7,CCCCNc1nc(Oc2ccc(=O)n(C)n2)nc(N(CC)CC)n1,-5.33
8,CC(C)C[C@H](NC(=O)c1ccc(N2CCOCC2)cc1)C(=O)NC1(C#N)CCC1,-12
9,Nc1nonc1C(=O)NCCNCc1ccc(Br)cc1,-1.71
10,Cc1cc(C)n2nc(SCC(=O)NC3CCCCC3)nc2n1,2.9
11,CC(C)c1ccc(-c2nc(-c3ccccc3)c(-c3ccccc3)[nH]2)cc1,-4.32
12,Cc1nn(CC(=O)N(C)Cc2ccccc2)c(=O)c2cc3sccc3n12,0.137
13,CC(C)NC(=O)C(=O)NCc1ccc(Cl)cc1Cl,2.94
14,CCOC(=O)c1c(C)[nH]c(C)c1S(=O)(=O)NCc1ccc(OC)cc1,1.4
15,COc1ccc(CN2C(=O)NC(=O)/C(=C\c3ccc(O)c(O)c3)C2=O)cc1,-2.39
16,CCOc1cc(/C=C/c2ccccc2OC)cc(=O)c2c(C)oc(C)c12,1.81
17,COc1ccc(/C=C2/C(=O)N=C3SCCN32)cc1,8.62
18,CCOc1ccc(C(=O)Nc2cccc(C)c2)cc1,-3.45
19,O=C(O)c1cccc(CSc2nnc(COc3ccccc3)o2)c1,-0.183
20,Cc1ccc2c(c1)C1(C(=O)N2C)N2CC3(C)CN1CC(C)(C2)C3=O (stereo not drawn),-0.267
21,CC1CCCC(NCc2c(C(=O)O)n(C)c3ccccc23)C1C (stereo not drawn),-3.21
22,O=C(CCn1cnnn1)n1nnc2ccccc21,4.57
23,Cc1cccc(C(=O)NC2(C(F)(F)F)C(=O)Nc3c2c(=O)[nH]c(=O)n3-c2ccccc2)c1 (stereo not drawn),-2.67
24,CCOC(=O)c1cc(S(=O)(=O)N2CC(C)CC(C)C2)cn1C (stereo not drawn),-1.06
25,COCCNC(=O)CCCc1nnc2n3nc(-c4ccccc4)nc3c3ccccc3n12,2.04
26,c1ccc(OCCN2CCCCC2)cc1,2.76

row,SMILES,% Inhibition @ 10 uM [%]
1,COc1ccc(Cn2c(SCc3ccc(C(=O)NCC4CCCO4)cc3)nc3cccnc32)cc1 (stereo not drawn),9.89
2,CCOC(=O)c1oc2c(c1C)-c1nn(CC)cc1CC2,-1.75
3,COc1ccc(C(=O)NCc2ccccc2)c(OC)c1,-3.37
4,CCCCNC(=O)c1c(NC(=O)c2ccccc2)sc(C)c1C,-0.0648
5,Cc1ccc(-c2cc(NC(=O)c3ccccc3C)on2)cc1,1.9
6,O=C(NC(Cc1ccccc1)C(=O)O)/C(=C\c1ccco1)NC(=O)c1ccccc1Br (stereo not drawn),-3.75
7,Cc1cccc(C)c1NC(=O)Cc1ccccc1,-7.42
8,COc1ccc(OC)c(NC(=O)Cc2cccc3ccccc23)c1,2.79
9,CCCC(=O)Nc1c2c(nc3ccccc13)N(c1ccccc1)CC2,-0.13
10,CCN(CC)S(=O)(=O)N1CCC(C(=O)NCc2ccco2)CC1,-4.06
11,O=C(c1ccc2nc(N3CCCCC3)sc2c1)N1CCN(c2ccccn2)CC1,1.03
12,O=C(O)CCNc1cc(Cl)ccc1Oc1ccc(Cl)cc1,1.42
13,C#Cc1cccc(NC(=O)c2cccs2)c1,-0.267
14,CC(C)C[C@H](NC(=O)c1ccco1)C(=O)NCC#N,0.174
15,CC(NC(=O)c1ccccc1F)C(c1cccs1)N1CCOCC1 (stereo not drawn),7.05
16,O=C(O)c1cc(S(=O)(=O)N2CCOCC2)ccc1F,-2.22
17,Nc1n[nH]c(C(=O)NCc2ccccc2)n1,-2.36
18,Cn1c(=O)c2c(nc3n(CC(O)c4ccccc4)c(-c4ccccc4)cn23)n(C)c1=O (stereo not drawn),2.67
19,O=Cc1[nH]c2ccccc2c1Cl,0.231
20,CCOCCCNCc1c(C(=O)O)n(Cc2ccccc2)c2cc(OC)ccc12,-2.68
21,Cc1cccc(-c2noc(CN(C)S(=O)(=O)c3ccccc3)n2)c1,-4.54
22,Cc1nonc1NC(=O)Nc1ccncc1,-1.86
23,CC1CCCCN1CCNC(=O)C1c2ccccc2C(=O)N(C)C1c1cccs1 (stereo not drawn),-1.19
24,CC12CN3CN(C1)CC(c1ccccc1)(C3)C2=O,-0.216
